Reference: PubChem BioAssay AID540267 (National Center for Advancing Translational Sciences (NCATS), 2011)
Out of some 340,000 compounds screened, about 530 (0.16%) were called active. This list was built around the results that the source calls inconclusive (neither active nor inactive); the mix of calls is not that of the screen. No stated cut-off is given here; in the data, active means activity change below about -80%; inconclusive means between about -30% and that limit; inactive means weaker than that.

assay: Small Molecules that selectively kill Giardia lamblia: qHTS; details: Giardia lamblia trophozoite viability; at 7.66 µM; stronger effect = lower value;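 further: parasites exposed to compound for two days anaerobically before the ATP read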
In short: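 ATP-content bioluminescence gauges trophozoite survival. Cells (100/well) receive compound and incubate anaerobically for 48 hrs at 37 deg C; detection reagent follows for 15-30 min at room temperature.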
On the % scale 0 is the no-effect control and ±100 the full control effect.

Question: With `COC(=O)C(C)Oc1ccc(-c2nccc(-c3cccs3)n2)cc1` (centres undefined) as the compound, how does the activity change read?
Answer: Its activity change is inconclusive: -35.8% [inhibitor].

Question: For `O=C(Nc1nc2c(Br)cc(Br)cc2c(=O)s1)C1CCC1`, which activity change is on record?
Answer: Its activity change is inconclusive: -36% [inhibitor].

Question: For `COc1cccc(OC)c1C(=O)Nc1ccc(NC(=O)c2ccco2)cc1`, which activity change is on record?
Answer: The activity change was inconclusive: -33.4% [inhibitor].

Question: With `O=[N+]([O-])c1cn(-c2nc(-c3ccco3)cc(C(F)(F)F)n2)cn1` as the compound, how does the activity change read?
Answer: The activity change was inconclusive: -54.3% [inhibitor].

Question: Which activity change does the source give for `Cc1ccccc1/C=N/Nc1ccnc2cc(Cl)ccc12` here?
Answer: Its activity change is inconclusive: -76.7% [inhibitor].

Question: Which activity change does the source give for `Cn1c(O)c(/C=C2\C=Nc3ccccc32)sc1=Nc1ccc(C(=O)O)cc1` here?
Answer: The activity change was inconclusive: -35.2% [inhibitor].

Question: Which activity change does the source give for `Cc1ccc(C(=O)NC2CCCCCCC2)c(Cl)c1` here?
Answer: The activity change was inconclusive: -36.7% [inhibitor].

Question: With `C[C@H](CO)N1C[C@H](C)[C@@H](CN(C)C(=O)Nc2ccccc2)Oc2ccc(NC(=O)Nc3ccccc3)cc2C1=O` as the compound, how does the activity change read?
Answer: Its activity change is inconclusive: -30.1% [inhibitor].

Question: Which activity change does the source give for `O=C(CSc1nnc2ccccn12)c1ccc(Cl)cc1` here?
Answer: The activity change was inconclusive: -39.3% [inhibitor].

Question: With `Cc1cccc(NC(=O)CN2C(=O)S/C(=C\c3ccc(O)c([N+](=O)[O-])c3)C2=O)c1` as the compound, how does the activity change read?
Answer: Its activity change is inconclusive: -72.8% [inhibitor].

Question: With `CC(=O)N1CCN(c2nc(CC(C)C)c3c(c2C#N)CCC3)CC1` as the compound, how does the activity change read?
Answer: The activity change was inactive: -0.0073%.

Question: With `O=C(COc1cccnc1[N+](=O)[O-])Nc1ccc(F)cc1` as the compound, how does the activity change read?
Answer: Its activity change is inconclusive: -62.7% [inhibitor].

Question: Which activity change does the source give for `O=S(=O)(Cc1ccc(Cl)cc1)c1ncc(CO)n1Cc1ccccc1` here?
Answer: The activity change was inconclusive: -34.7% [inhibitor].

Question: Which activity change does the source give for `CCOC(=O)C1(CCCc2ccccc2)CCN(C(=O)c2cc(C)nc(C)n2)CC1` here?
Answer: The activity change was inconclusive: -32.6% [inhibitor].

Question: Which activity change does the source give for `COc1ccc(OC)c(-c2nnc(SCC(=O)NC3CCCCC3)o2)c1` here?
Answer: The activity change was inconclusive: -33% [inhibitor].

Question: For `O=C(Cc1ccccc1)c1c[nH]c(C(=O)O)c1`, which activity change is on record?
Answer: Its activity change is inconclusive: -33% [inhibitor].

Question: With `O=C(Oc1ccc2ccc(=O)oc2c1)c1ccccc1` as the compound, how does the activity change read?
Answer: The activity change was inconclusive: -36.3% [inhibitor].

Question: Which activity change does the source give for `CC1(C)N=c2ccc([N+](=O)[O-])c(N)c2=[N+]1[O-]` here?
Answer: Its activity change is inconclusive: -48.2% [inhibitor].

Question: With `CCOC(=O)CNC(=O)CSc1nnc(NC(=O)c2ccc(C)cc2)s1` as the compound, how does the activity change read?
Answer: The activity change was active: -87.1%.

Question: With `O=C1NCCN1CCNS(=O)(=O)c1ccc(F)c(Cl)c1` as the compound, how does the activity change read?
Answer: Its activity change is inconclusive: -31.4% [inhibitor].

Question: Which activity change does the source give for `O=C(O)CCN1CC2([N+](=O)[O-])CC=C(OCCO)C([N+](=O)[O-])(C1)C2` (centres undefined) here?
Answer: Its activity change is inconclusive: -34.4% [inhibitor].

Question: With `CC(C(=O)N1CCOCC1)c1ccccc1` (centres undefined) as the compound, how does the activity change read?
Answer: The activity change was inconclusive: -30.5% [inhibitor].

Question: Which activity change does the source give for `CN1C(=O)CSC1=Nc1ccc(Br)cc1` here?
Answer: The activity change was inconclusive: -30.7% [inhibitor].

Question: With `CN(C)c1ccc(C(=O)n2nnc3ccccc32)cc1` as the compound, how does the activity change read?
Answer: Its activity change is inactive: 5.59%.

Question: With `CCOP(=O)(OCC)C(NC(C)=O)C(=O)c1ccccc1` (centres undefined) as the compound, how does the activity change read?
Answer: Its activity change is inconclusive: -34.9% [inhibitor].

Question: With `Cc1ccc(S(=O)(=O)CCC(=O)NC2CCCCC2)cc1` as the compound, how does the activity change read?
Answer: The activity change was inconclusive: -31.6% [inhibitor].

Question: Which activity change does the source give for `Cc1cccc(NC(=O)CCC2CCN(C(=O)C3CC=CCC3)CC2)c1` (centres undefined) here?
Answer: Its activity change is inconclusive: -32.9% [inhibitor].

Question: With `CCN(CC)S(=O)(=O)c1cccc(C(=O)N[C@H](C(=O)Nc2nc3ccc(F)cc3s2)C(C)C)c1` as the compound, how does the activity change read?
Answer: The activity change was inconclusive: -30.8% [inhibitor].

Question: Which activity change does the source give for `Cc1ccc(SCC(=O)OC(C)C(=O)NC2CCCCC2C)c(C)c1` (centres undefined) here?
Answer: The activity change was inactive: -5.16%.

Question: Which activity change does the source give for `COc1ccc(-c2cnnn2-c2ccc(NC(=O)/C=C/c3ccc(OC)c(OC)c3)cc2)cc1` here?
Answer: Its activity change is inconclusive: -34.3% [inhibitor].

Question: For `COc1cccc(-c2cc(C(=O)Nc3cccc(O)c3)no2)c1`, which activity change is on record?
Answer: The activity change was inconclusive: -41.9% [inhibitor].

Question: With `C=CCNC(=O)NC(=O)c1csc([N+](=O)[O-])c1` as the compound, how does the activity change read?
Answer: Its activity change is inconclusive: -67.3% [inhibitor].

Question: With `COC(=O)c1cc(Br)ccc1N(Cc1cc(OC)cc(OC)c1)S(C)(=O)=O` as the compound, how does the activity change read?
Answer: Its activity change is inconclusive: -44.3% [inhibitor].

Question: With `CCCCC1(C)NC(=O)N(CC(=O)Nc2cc(S(=O)(=O)N3CCOCC3)ccc2Cl)C1=O` (centres undefined) as the compound, how does the activity change read?
Answer: The activity change was inconclusive: -36.6% [inhibitor].

Question: Which activity change does the source give for `CCOc1ccc(-c2ccc(SCC(=O)NC3CCCCC3)nn2)cc1` here?
Answer: The activity change was inconclusive: -44.4% [inhibitor].

Question: Which activity change does the source give for `CCN(CC)C(=O)C1CCN(S(=O)(=O)c2c(C)noc2/C=C/c2cccc(C)c2)CC1` here?
Answer: The activity change was inactive: 8.92%.

Question: With `O=C(CNCc1ccccc1Cl)Nc1cc(S(=O)(=O)N2CCOCC2)ccc1Cl` as the compound, how does the activity change read?
Answer: The activity change was inconclusive: -41.5% [inhibitor].

Question: Which activity change does the source give for `O=C(Nc1ccccc1)N(CCCN1CCOCC1)Cc1cccs1` here?
Answer: The activity change was inconclusive: -32.8% [inhibitor].

Question: For `CCCCn1c(-c2csc(CC)c2)n[nH]c1=S`, which activity change is on record?
Answer: Its activity change is inconclusive: -38.8% [inhibitor].

Question: For `COc1ccc(-c2nc3ncccn3c2Br)cc1`, which activity change is on record?
Answer: The activity change was inconclusive: -30.2% [inhibitor].

Question: Which activity change does the source give for `COc1ccc(NC(=S)NC23CC4CC(CC(C4)C2)C3)cc1OC` here?
Answer: Its activity change is inactive: -10.3%.

Question: For `CCOC(=O)C(=NCCCN(C)C)NNc1ccc(Br)cc1`, which activity change is on record?
Answer: The activity change was inconclusive: -33.2% [inhibitor].

Question: Which activity change does the source give for `Cc1ccc(-c2ccc(C(=O)Nc3ccccc3)o2)c2ccccc12` here?
Answer: The activity change was inactive: -14.6%.

Question: Which activity change does the source give for `CCOc1ccccc1-c1noc(CCC(=O)Nc2cccnc2)n1` here?
Answer: Its activity change is inconclusive: -30.9% [inhibitor].

Question: With `CCc1ccc([C@@H]2CC=C(C(=O)O)[C@H](c3cccc(Cl)c3)N2S(=O)(=O)c2ccc(C)cc2)cc1` as the compound, how does the activity change read?
Answer: The activity change was inconclusive: -47.6% [inhibitor].

Question: For `Cc1ccc2nc(CSc3nc(C)ccc3C#N)[nH]c2c1`, which activity change is on record?
Answer: The activity change was active: -88.3%.

Question: For `O=C(Nc1ccc(F)cc1F)Nc1csc2ccccc12`, which activity change is on record?
Answer: Its activity change is inactive: -17.7%.

Question: For `Cc1cc(NC(=O)CSc2nc3ccccc3n2CCC#N)no1`, which activity change is on record?
Answer: The activity change was inconclusive: -31.1% [inhibitor].

Question: With `COc1ccccc1N1CCN(c2ccc(-c3ccccc3)nn2)CC1` as the compound, how does the activity change read?
Answer: Its activity change is inconclusive: -31.9% [inhibitor].
